Experimental data from the antibiotic and cytotoxicity screens of Wong et al. (2023).
Some of the results follow.

Assays:
HSkMC = human skeletal muscle cells; assay: cytotoxicity call (relative viability < 0.9); settings: 10 µM
HepG2 = assay: cytotoxicity call (relative viability < 0.9); settings: 10 µM
S. aureus RN4220 = assay: growth inhibition call (relative growth <= 0.2); settings: 50 µM

Structure (SMILES)	cytotoxicity call (HSkMC)	cytotoxicity call (HepG2)	growth inhibition call (S. aureus RN4220)
COCCNC(=O)C[C@H]1CC[C@@H]2[C@H](COc3ccc(NC(=O)Nc4cccc(F)c4)cc3C(=O)N2C)O1	inactive	inactive	inactive
C[C@@H]1CN([C@@H](C)CO)S(=O)(=O)c2ccc(C3=CCCCC3)cc2O[C@@H]1CN(C)C(=O)C1CCOCC1	inactive	inactive	inactive
CO[C@@H]1CN(C)C(=O)c2ccc(NC(=O)C3CCOCC3)cc2OC[C@@H](C)N(Cc2cccnc2)C[C@@H]1C	inactive	inactive	inactive
CO[C@H](CN(C)C(=O)c1ccccc1F)[C@@H](C)CN([C@@H](C)CO)S(=O)(=O)c1ccc(Cl)cc1	inactive	inactive	inactive
Cc1noc(C)c1NC(=O)Nc1ccc2c(c1)C(=O)N([C@@H](C)CO)C[C@H](C)[C@H](CN(C)S(=O)(=O)c1ccccc1)OCCCC[C@@H](C)O2	inactive	inactive	inactive
O=C1O[C@H](c2ccccc2)[C@H](c2ccccc2)N2[C@H]1[C@@H](C(=O)Nc1nc3ccccc3s1)[C@]1(C(=O)Nc3ccc(C#CCCO)cc31)[C@H]2c1ccc(O)cc1	inactive	inactive	inactive
C[C@@H]1CN([C@@H](C)CO)C(=O)c2cc(NC(=O)NC3CCCCC3)ccc2O[C@@H](C)CCCCO[C@@H]1CN(C)Cc1ccc(C(=O)O)cc1	inactive	inactive	inactive
C[C@@H]1CCCCO[C@H](CN(C)C(=O)Nc2ccc3c(c2)OCO3)[C@@H](C)CN([C@@H](C)CO)C(=O)c2cc(NS(=O)(=O)c3ccccc3)ccc2O1	inactive	inactive	inactive
Cc1ccc(NC(=O)Cc2coc3ccc(C(C)C)cc23)cc1	inactive	inactive	inactive
C[C@H](CO)N1C[C@H](C)[C@@H](CN(C)S(C)(=O)=O)Oc2ccc(NC(=O)CCN3CCOCC3)cc2CC1=O	inactive	inactive	inactive
COC(=O)c1ccc(CNC(=N)N)cc1	inactive	inactive	inactive
OS(=O)(=O)c1ccc(cc1)/C/1=C\2/N/C(=C(\C3=N/C(=C(/c4ccc(cc4)S(=O)(=O)O)c4ccc([nH]4)/C(=C\4/C=CC1=N4)c1ccc(cc1)S(=O)(=O)O)C=C3)c1ccc(cc1)S(=O)(=O)O)C=C2	inactive	inactive	inactive
CCOC(=O)c1c(NC(C)=O)no[n+]1[O-]	inactive	inactive	inactive
C[C@@H]1CN([C@@H](C)CO)C(=O)c2cc(NS(=O)(=O)c3ccccc3)ccc2O[C@@H](C)CCCCO[C@H]1CN(C)Cc1ccc(C(F)(F)F)cc1	inactive	inactive	inactive
Cc1cc(C)c(C#N)c(=O)[nH]1	inactive	inactive	inactive
Cc1ccc(S(=O)(=O)Nc2ccc3c(c2)C(=O)N([C@@H](C)CO)C[C@@H](C)[C@@H](CN(C)C(=O)c2ccccc2)OCCCC[C@H](C)O3)cc1	inactive	inactive	inactive
C[C@@H]1CN([C@@H](C)CO)C(=O)c2cc(NC(=O)Nc3cccc4ccccc34)ccc2O[C@@H]1CN(C)S(=O)(=O)c1ccc(Cl)cc1	inactive	inactive	inactive
C[C@H](CO)N1C[C@H](C)[C@H](CN(C)Cc2ccccc2)OCCCC[C@H](C)Oc2ccc(NC(=O)Nc3ccc(F)cc3)cc2C1=O	inactive	active	inactive
C[C@H]1CN([C@@H](C)CO)C(=O)CCCn2nncc2CO[C@H]1CN(C)C(=O)CCCN(C)C	inactive	inactive	inactive
C[N+](C)(C)CCCC[C@@H]1NC(=O)[C@@H]2C[C@H](C(=O)NCc3ccc(F)cc3)[C@H](c3cccc(OCCO)c3)N2C1=O	inactive	inactive	inactive
Cc1noc(C)c1S(=O)(=O)N(C)C[C@H]1Oc2ccc(N(C)C)cc2CC(=O)N([C@H](C)CO)C[C@@H]1C	inactive	inactive	inactive
C[C@@H]1CCCCO[C@H](CN(C)S(=O)(=O)c2ccc(Cl)cc2)[C@@H](C)CN([C@@H](C)CO)C(=O)c2cc(NS(=O)(=O)c3ccccc3)ccc2O1	inactive	inactive	inactive
Oc1c(I)cc(I)c2cccnc12	inactive	active	inactive
Cc1cc(C(=O)Nc2cccc3c2O[C@@H](CN(C)S(=O)(=O)c2ccccc2)[C@H](C)CN([C@H](C)CO)C3=O)n(C)n1	inactive	inactive	inactive
O=C(NCCO[N+](=O)[O-])c1cccnc1	inactive	active	inactive
